The other results are listed elsewhere or left out. These are further read-outs of the screen, such as a control signal, another cell line or another target. No call is given for them. Most of these compounds were active or inconclusive in the main read-out, so they are no random draw. Potencies come from curve fits of mixed quality, noted in brackets.
Tags tell the direction and shape of the fitted curve.

This experiment is described as follows: qHTS Assay for Lipid Storage Modulators (AID 1519). The note with it: Drosophila S3 cells, BODIPY lipid droplet/cell ratio, laser cytometry; measured here: lipid (BODIPY) channel AC50; cells loaded with oleic acid. An outline of the steps: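 Cells seeded at 5,000 per well were treated with compounds over a concentration series and loaded with oleic acid (400 uM, as added). Lipid droplet fluorescence (488 nm excitation, 500-530 nm channel) was read by laser-scanning cytometry and normalized to 20 uM Triacsin C.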
(In general: In qHTS, concentration-response curves come from the screen itself.)
Regarding `COc1cc2c(C=O)c3c4c(cc(OC)c(OC)c4c2cc1OC)CCN3C`, the concentration at half-maximal activity (AC50) – broadly, the concentration giving half of the maximal activity seen – is 0.708 µM [rising, full curve]. With `c1cncc(-c2ccc3ncnc(NCCN4CCOCC4)c3c2)c1`, the AC50 was 0.708 µM [rising, full curve].

For `CCNc1ncc2nc(-c3ccccc3)c(=O)n(Cc3ccc(F)cc3)c2n1`, the half-maximal activity concentration (AC50) is 0.708 µM [rising, partial curve]. For `O=C(O)c1c2ccccc2cc2ccccc12`, the AC50 is 28.2 µM [rising, partial curve]. With `COC(=O)Nc1ccc2[nH]cc(CCNC(C)=O)c2c1`, the AC50 is 15.8 µM [rising, partial curve, poor fit]. Next, `Cc1nc2cnc(Oc3cccc(Cl)c3)nc2n(CCc2ccccc2)c1=O`: 0.0398 µM [rising, full curve, poor fit]; `COc1cc2c(cc1OC)-c1c(OC)c(OC)cc3ccnc(c13)C2=O`: 0.112 µM [rising, full curve, poor fit].

As to `CCNc1ncc2nc(CCc3ccccc3)c(=O)n(C)c2n1`, the half-maximal activity concentration (AC50) is 0.224 µM [rising, full curve, poor fit].

Turning to `COc1ccc(-n2c(=O)c(-c3cccc(F)c3)nc3cncnc32)cc1`, the half-maximal activity concentration (AC50) is 0.631 µM [rising, full curve].

With `COc1ccc(CNc2ccnc(-c3ccoc3)n2)c(OC)c1`, the concentration at half-maximal activity (AC50) was 3.55 µM [rising, partial curve, poor fit]. For the compound `CC(=O)NCCNc1nc(-c2cccc(NS(C)(=O)=O)c2)nc2ccccc12`, the AC50 is 1.58 µM [rising, full curve, poor fit]. The value for `COc1cccc2c1C(=O)CC(c1ccccc1)O2` (stereo not given) was 14.1 µM [rising, partial curve, poor fit]; that for `Cc1ccc(CC(Cc2nc3ccccc3[nH]2)c2nc3ccccc3[nH]2)cc1` (stereo not given) was 2.24 µM [rising, full curve]; that for `COc1ccc(Oc2ncc3ncc(=O)n(Cc4ccc(F)cc4)c3n2)cc1` was 0.708 µM [rising, full curve]. `Cc1cnc(CNc2ncnc3ccc(-c4ccc(N(C)C)cc4)cc23)cn1`: the concentration at half-maximal activity (AC50) is 0.501 µM [rising, full curve, poor fit]. The value for `COc1ccc2[nH]cc(CCNc3ncnc4ccc(-c5cccc(C#N)c5)cc34)c2c1` was 0.708 µM [rising, full curve].

Regarding `Cc1cnc(CNc2cc(-c3ccc(N(C)C)cc3)ncn2)cn1`, the AC50 is 0.562 µM [rising, full curve, poor fit].

As to `CC(=O)OC1CCC2(C)C(CCC3(C)C2C(=O)C=C2C4CC(C)(C(=O)OCCN5CCCCC5)CCC4(C)CCC23C)C1(C)C` (stereo not given), the half-maximal activity concentration (AC50) was 15.8 µM [rising, partial curve, poor fit]. Next, `COc1ccccc1CNc1cc(-c2ccccc2C(F)(F)F)ncn1`: 31.6 µM [rising, partial curve]; `O=C(Oc1ccccc1)N1CCC2(CCCN(c3ncccn3)C2)CC1`: 0.891 µM [rising, full curve, poor fit]. As for `COc1ccc2[nH]cc(CCNc3ccnc(-c4ccccc4Cl)n3)c2c1`, the AC50 is 1.78 µM [rising, partial curve].

Consider `COC(=O)CC[C@@H](C)[C@H]1CC[C@H]2[C@@H]3CC[C@@H]4C[C@H](O)CC[C@]4(C)[C@H]3C[C@H](O)[C@]12C`, for which the half-maximal activity concentration (AC50) is 14.1 µM [rising, partial curve, poor fit]. On to `CN1CCN(c2ncnc3ccc(-c4cccc(C#N)c4)cc23)CC1`, for which the half-maximal activity concentration (AC50) is 1 µM [rising, full curve, poor fit]. As to `O=c1c(-c2cccs2)nc2cnc(N3CCNCC3)nc2n1Cc1cccs1`, the AC50 is 39.8 µM [falling, single point]. Take `CCNc1ncc2nc(-c3ccc(OC)cc3)c(=O)n(CCc3ccccc3)c2n1`: the half-maximal activity concentration (AC50) was 0.0794 µM [rising, full curve]. Consider `Cc1ccccc1-c1cc(N(C)Cc2ccco2)ncn1`, for which the AC50 was 14.1 µM [rising, partial curve, poor fit]. For `COc1ccc(CNc2nc(-c3cccc(C#N)c3)nc3ccccc23)c(OC)c1`, the AC50 is 0.0224 µM [rising, full curve, poor fit]. For the compound `CNC(=O)[C@H]1O[C@H](n2cnc3c(NCc4cccc(I)c4)ncnc32)[C@@H](O)[C@@H]1O`, the half-maximal activity concentration (AC50) is 15.8 µM [rising, partial curve, poor fit].

Take `COc1ccc(-c2coc3ccc(OC4OC(COC(C)=O)C(OC(C)=O)C(OC(C)=O)C4OC(C)=O)cc3c2=O)cc1` (stereo not given): the AC50 is 0.0708 µM [rising, full curve, poor fit]. Consider `COc1ncc2nc(-c3ccc(F)cc3)c(=O)n(Cc3cccs3)c2n1`, for which the AC50 was 14.1 µM [rising, partial curve]. As to `Cc1cccc(CNc2cc(-c3ccc(N(C)C)cc3)ncn2)c1`, the AC50 was 25.1 µM [falling, partial curve].

As to `CCCCCCCC/C=C\CCCCCCCC(=O)N[C@@H](CO)Cc1ccc(O)cc1`, the AC50 was 39.8 µM [rising, single point]. The value for `Cc1cnc(CNc2cc(-c3ccccc3C)ncn2)cn1` was 14.1 µM [rising, partial curve, poor fit]; that for `O=c1cnc2cnc(Oc3ccccc3)nc2n1Cc1cccs1` was 2.82 µM [rising, partial curve, poor fit].

Turning to `N#Cc1ccccc1-c1ccc2ncnc(NC3CC3)c2c1`, the concentration at half-maximal activity (AC50) is 1.12 µM [rising, partial curve]. `CN(C)c1ncc2nc(-c3ccc(Cl)cc3)c(=O)n(C)c2n1`: the concentration at half-maximal activity (AC50) is 4.47 µM [rising, full curve, poor fit]. `COc1cccc(-c2cc(NCc3ccc(OC)cc3OC)ncn2)c1`: the AC50 is 1.78 µM [rising, full curve]. The value for `O=c1cc(-c2ccccc2O)oc2c(O)c(O)ccc12` was 28.2 µM [rising, partial curve]; that for `COc1ccc(CNc2ccnc(-c3cccnc3)n2)c(OC)c1` was 0.251 µM [rising, full curve]; that for `N#Cc1cccc(-c2nc(NCc3cccnc3)c3ccccc3n2)c1` was 0.2 µM [rising, full curve].

The values are drawn from PubChem BioAssay (NCATS).
